The data set relates to ATP. Briefly: switch fluorescence ratio, 500 uM ATP over buffer (Cy3 cluster intensity, sum of 5 cycles each) (fold (ratio)); higher = stronger signal-on switching upon ATP binding; sequences stand for … in TCGTCGGCAGCGTCAGATGTGTATAAGAGACAGTTTTTTTTTTTTTTTTTTTTTTTTT…TC. The settings on record: aptamer strand: ATP DNA aptamer (quencher-CACCTGGGGGAGTATTGCGGAGGAAGG + anchor), 100 nM annealed; ATP concentration: 500 uM; one replicate. The method, boiled down: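 The quencher-labelled ATP aptamer, at 100 nM, was annealed to Cy3-labelled switching-strand clusters on a modified Illumina MiSeq flow-cell. The clusters were imaged in selection buffer, then after 15 min with 500 uM ATP at 22 °C, and this buffer/ATP cycle ran five times with NaOH stripping and re-annealing between runs. Per-cluster fluorescence ratios, summed target-cycle over summed buffer-cycle Cy3 intensity, were averaged per switch-domain sequence. Clusters outside 100-1000 RFU were excluded.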

Values marked as one replicate rest on one cluster of the flow cell; about a third of the high ones do not repeat.
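Note: ATP exposure 15 min at 22 °C before imaging.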

As for TTTTATAAAC, the switch fluorescence ratio turned out to be 0.997.

With GTATGTGTT, the switch fluorescence ratio is 1.06. The same measure for TATCATACGA: 0.992. Turning to CTTTGTCAC, the switch fluorescence ratio is 1.02.

With AAGTACAACC, the switch fluorescence ratio came to 1.25.

As for GATCTCGCGC, the switch fluorescence ratio is 0.987.

As for AAATTTGATG, the switch fluorescence ratio was 0.997.

AGAACAGAGA: the switch fluorescence ratio was determined as 0.985. Take GGGCTGCGTG: the switch fluorescence ratio turned out to be 0.949. Regarding ATGATATCGT, the switch fluorescence ratio turned out to be 1.01. For the sequence CTCGAGAGAG, the switch fluorescence ratio was determined as 0.983.

With TGGTCAAGG, the switch fluorescence ratio is 0.968. To AGCCCAGCTA belongs 0.954. As for TCGGCTGGGT, the switch fluorescence ratio is 1.

Take CGGCATAGGT: the switch fluorescence ratio is 1.01. On to CTAGGCCTAT, for which the switch fluorescence ratio is 0.964. To GGTATGGGCA belongs 1.09; to GCGTTTTGCC, 0.959; to TTAGCCATAG, 1.07. In the case of ACTATCACAT, the switch fluorescence ratio worked out at 1.21. Consider ATATGAGGAC, for which the switch fluorescence ratio was determined as 1. As to GTTGTGGGAG, the switch fluorescence ratio was 0.985. To GTTACTCTTA belongs 1.05; to AAATGGCAGC, 1.04. ACTGGATTAC: the switch fluorescence ratio stood at 1.19. On to ATTAGGAAAC, for which the switch fluorescence ratio came out at 1.02. Turning to ACGGAAAGGG, the switch fluorescence ratio amounted to 1.09.

Consider CACGTTGGTA, for which the switch fluorescence ratio was 1. With CTCAACGGCA, the switch fluorescence ratio was 1.04. For TGGTTGTGAC, the switch fluorescence ratio turned out to be 0.997. TAGTGAGAGG: the switch fluorescence ratio is 0.958.

For the sequence TTAGGAATAG, the switch fluorescence ratio was 1.03. As to TGTTAGGGAA, the switch fluorescence ratio came out at 0.991. As for CGCCCTCCAT, the switch fluorescence ratio stood at 1.14.

For GATGACGTTC, the switch fluorescence ratio came out at 0.973.

Take GTTTACGAGG: the switch fluorescence ratio was 0.995. As to CTTAAGAGAA, the switch fluorescence ratio worked out at 0.988. In the case of ATTCCCGTC, the switch fluorescence ratio turned out to be 1.06. Turning to CATACGTAAT, the switch fluorescence ratio amounted to 6.65.

As to GTTCCGTAGA, the switch fluorescence ratio turned out to be 1.13.

With TGCTAAATCG, the switch fluorescence ratio stood at 0.955.

Consider ATGGCGTAAG, for which the switch fluorescence ratio was determined as 0.989. To ACGCAGAGTT belongs 1.07; to TTAGTCATAC, 1.1. The same measure for CCGGACCCTA: 1.13. Turning to TTACACGGG, the switch fluorescence ratio was 1. Consider GAGCCCGAGA, for which the switch fluorescence ratio came to 0.98. AAAATATTGG: the switch fluorescence ratio was 0.965. Take TATGTGATGA: the switch fluorescence ratio amounted to 0.979. In the case of GCAGATCCG, the switch fluorescence ratio was determined as 1.04.

Turning to AAAATTCGTG, the switch fluorescence ratio was 1.02. Take AAAAAAGCGA: the switch fluorescence ratio was 1.02. The same measure for GGTTTCTCAA: 0.98. Take GGTGTAAGTT: the switch fluorescence ratio was 0.967. With ATCGGTCCGC, the switch fluorescence ratio worked out at 1.12.

On to GGTTGGGCTA, for which the switch fluorescence ratio came to 0.978. Regarding TGAGCCTGTG, the switch fluorescence ratio is 0.956. In the case of TCTCCGGTGT, the switch fluorescence ratio was 1.78. With ATACTTAAA, the switch fluorescence ratio turned out to be 1.04. For GACTTTGTCG, the switch fluorescence ratio came to 1.04. The same measure for GTCGTTGTAG: 1.03; for GTCGAGATGG: 0.993; for CTCAAAGGAC: 1.83.

Take GTTCGTACTT: the switch fluorescence ratio was found to be 0.972.

Turning to TTAGTGAACC, the switch fluorescence ratio was determined as 1.04.

On to CGGCTTTAAG, for which the switch fluorescence ratio was determined as 1.01. In the case of GCTCACGATC, the switch fluorescence ratio came out at 1.27.

The values are drawn from the supplement of paper PMC10126150.
